Some of the results follow. At the low end of the ranking the order means little.

This note sets out measurements from article PMC6212790.

In the experiment the target is T1, GST-Rok-C97-191 (UniProt O34857).
T1 sequence: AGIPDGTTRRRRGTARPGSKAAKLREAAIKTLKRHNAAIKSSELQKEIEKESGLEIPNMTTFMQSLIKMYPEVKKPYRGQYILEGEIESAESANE
The experiment can be described thus: protein binding microarray.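 Further: rank score from −0.5 (least bound) to 0.5 (best bound).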 The settings on record: Rok is a gene silencer of Bacillus subtilis; high values mean tight binding; most listed sequences are background and not binding sites; double strand, one strand shown.
On to GGTGGGGA, for which the binding signal was -0.287 E-score.
Take CTCTCGTC: the binding signal is -0.11 E-score.
Regarding CGGTCACA, the binding signal was -0.00534 E-score.
As for ATCACCAC, the binding signal is 0.0496 E-score.
Take CGTCTAAA: the binding signal was -0.0728 E-score.
On to GGAAATGA, for which the binding signal was -0.0558 E-score.
For AACTTAAG, the binding signal is 0.0428 E-score.
Take ATATTACC: the binding signal turned out to be 0.304 E-score.
AGTCTTAT registered a binding signal of 0.256 E-score.
In the case of AAGCGGCA, the binding signal is -0.227 E-score.
The result for TAGTAATA reads 0.403 E-score; that for CGCATAAC, 0.0446 E-score.
CTTTCGTC had a binding signal of 0.0144 E-score.
For GAGCACAC, the binding signal was -0.0393 E-score.
AGTTATAT: the binding signal was determined as 0.239 E-score.
Regarding ATGGGCAC, the binding signal is -0.122 E-score.
Consider TGTCGCAA, for which the binding signal was 0.027 E-score.
With CTCCGCGA, the binding signal is -0.0751 E-score.
As to ATAGTCTA, the binding signal was 0.118 E-score.
The result for ATGGATGA reads 0.133 E-score; that for AACGGGGT, -0.0866 E-score; that for CGGCCCAA, -0.179 E-score.
With CGGCGGGA, the binding signal was -0.127 E-score.
The sequence TAGAAACA yielded a binding signal of 0.306 E-score.
For GACAAACA the value was 0.0203 E-score; for CTCCGACA, -0.289 E-score; for CGACAATA, 0.123 E-score.
Take GGGCCGAA: the binding signal is -0.265 E-score.
For CGTAGAAC the value was 0.207 E-score; for CACAACCG, -0.0715 E-score; for CGTTCAGA, 0.00206 E-score.
As for CCATAGAA, the binding signal was 0.0533 E-score.
As for CAAAAGCA, the binding signal was -0.192 E-score.
CTAACCCA displayed a binding signal of 0.0606 E-score.
In the case of AGAGGACG, the binding signal is -0.277 E-score.
As to AAGCACAC, the binding signal was -0.128 E-score.
The result for GGAGAAAA reads 0.0231 E-score.
On to ATTTAGCC, for which the binding signal is 0.232 E-score.
For the sequence AAAGTGGG, the binding signal was -0.169 E-score.
The result for ATGATCGA reads 0.0912 E-score.
As to CCTGGTTA, the binding signal is 0.0123 E-score.
The result for ATTCAAAT reads -0.0558 E-score; that for CTCCGCTC, -0.148 E-score; that for ACAATCGG, -0.106 E-score.
As for ACATACCC, the binding signal was -0.0351 E-score.
As for GACCCTGA, the binding signal is -0.367 E-score.
ATTACATC yielded a binding signal of 0.137 E-score.
With GGGGCAAC, the binding signal is -0.227 E-score.
AAAAAGCT yielded a binding signal of 0.0222 E-score.
For CAATCAGA, the binding signal was -0.301 E-score.
The result for GGGTCCAA reads -0.33 E-score; that for GTAACGGA, 0.0166 E-score.
With CCGGGATA, the binding signal was -0.0118 E-score.
Turning to AAACGGAG, the binding signal is -0.159 E-score.
As for CAGATAGA, the binding signal was 0.16 E-score.
The result for GCGACAGC reads -0.016 E-score; that for AGGACGGC, -0.287 E-score.
The sequence ACGTAATG had a binding signal of 0.258 E-score.
For ACCGCGAA, the binding signal is 0.0444 E-score.
As to ATTCATAC, the binding signal amounted to 0.319 E-score.
With CTTGTTTC, the binding signal was -0.0603 E-score.
Turning to AAGTGGCG, the binding signal was -0.0539 E-score.
Take AGAGGTCC: the binding signal is -0.239 E-score.
As for CTCGTCAA, the binding signal is -0.246 E-score.
Consider GGGACCCC, for which the binding signal is -0.39 E-score.
With ACTTTCCT, the binding signal stood at 0.0736 E-score.
The sequence ATACTGTC displayed a binding signal of 0.0333 E-score.
Regarding ATCCCACC, the binding signal is -0.0116 E-score.
ATCGGATG: the binding signal was -0.0196 E-score.
Consider CCGACCGA, for which the binding signal is -0.214 E-score.
Regarding CGTGCACG, the binding signal came to 0.052 E-score.
Regarding CACGACTC, the binding signal was -0.0526 E-score.
ACAATGAA showed a binding signal of 0.0771 E-score.
For ACAATTCG the value was 0.0651 E-score; for ATGCCTCG, -0.186 E-score; for CTTTCCGC, -0.0117 E-score.
Consider TCGGAACA, for which the binding signal was -0.143 E-score.
As for AGCGTGTG, the binding signal was -0.0167 E-score.
Sequence AATAAACT registered a binding signal of 0.244 E-score.
For the sequence ACGCGCCC, the binding signal is -0.24 E-score.
With GGACCAAA, the binding signal is -0.211 E-score.
AAGTTGCG gave a binding signal of 0.0296 E-score.
For AAAAGGGT, the binding signal was -0.0457 E-score.
Take ACATAACT: the binding signal is 0.265 E-score.
Take AGCTGTCA: the binding signal came out at 0.0202 E-score.
For the sequence CAGCAATA, the binding signal was 0.203 E-score.
In the case of ACGGAGGA, the binding signal is -0.291 E-score.
CGCGAGTA returned a binding signal of 0.113 E-score.
As for ACACTGTC, the binding signal is -0.089 E-score.
Regarding ATGATCAC, the binding signal was determined as 0.0913 E-score.
Turning to GGCTCGCA, the binding signal was -0.224 E-score.
The result for GCTACACC reads -0.0612 E-score; that for ACCAGAAT, 0.103 E-score.
On to AGCAAGAC, for which the binding signal is -0.139 E-score.
GCGCAAAC gave a binding signal of 0.146 E-score.
The result for GGGGAGCA reads -0.318 E-score.
The sequence ATTGTTGC returned a binding signal of 0.15 E-score.
Take AACCTTGG: the binding signal is -0.172 E-score.
The result for ATCGTTAC reads -0.0272 E-score; that for ATATGCCC, 0.062 E-score.
CGGGAACC: the binding signal was -0.188 E-score.
As to GGCGTTGA, the binding signal is -0.0681 E-score.
As to CTCCAGCA, the binding signal stood at 0.0279 E-score.
For CATCAATC the value was -0.0832 E-score; for GGTCTGAA, 0.0526 E-score.
On to AGTACTAC, for which the binding signal worked out at 0.35 E-score.
With AGCCCGAG, the binding signal is -0.202 E-score.
Take GCAGCGTA: the binding signal was -0.208 E-score.
As for ATACTATA, the binding signal was 0.365 E-score.
The result for ACTGGCAG reads -0.166 E-score; that for AAAAGGAG, -0.0392 E-score; that for CGCTAGAC, 0.00486 E-score.
Take TCGCCCCA: the binding signal was -0.0292 E-score.
Take AAGCCCAC: the binding signal was -0.214 E-score.
For ACCTACGT the value was 0.161 E-score; for AAGGCTAG, 0.0655 E-score; for CAATCCCC, -0.0586 E-score.
For the sequence ACCACCAC, the binding signal was -0.102 E-score.
Turning to GGATTTAC, the binding signal worked out at 0.132 E-score.
For AACATATT the value was 0.24 E-score; for CCATCCAC, -0.165 E-score; for GTCTCAAA, -0.0258 E-score.
For CGTTTCTC the value was -0.0794 E-score.
Turning to TCTAAACA, the binding signal was -0.105 E-score.
On to CGTATCAA, for which the binding signal was 0.0404 E-score.
ACAGATGA: the binding signal is 0.0485 E-score.
Turning to CGTCGAGC, the binding signal was -0.175 E-score.
Sequence AGTAGCAA gave a binding signal of 0.277 E-score.
Regarding GTGGCATA, the binding signal was -0.0162 E-score.
In the case of AAACTAAG, the binding signal amounted to 0.251 E-score.
CAGGAGAG: the binding signal was -0.115 E-score.
Turning to CAAATATA, the binding signal amounted to 0.346 E-score.
On to ATCCTTCG, for which the binding signal was -0.0586 E-score.
Sequence AATGGGAT gave a binding signal of 0.00426 E-score.
The result for CAGAGGAG reads -0.272 E-score; that for AGCATGGG, -0.154 E-score; that for GGTATGGA, -0.0223 E-score.
For AACTAGAT the value was 0.388 E-score.
With TCTCGCCA, the binding signal was -0.0338 E-score.
Take ACGGATCA: the binding signal is -0.111 E-score.
In the case of AATAGGTA, the binding signal came to 0.311 E-score.
The result for CCTGTTAC reads 0.0823 E-score; that for CCTGTCAC, -0.294 E-score.
With GGTCTCGA, the binding signal was -0.246 E-score.
For CAACATTC the value was -0.0739 E-score; for GATTCAGA, -0.0773 E-score; for CCCAGATC, -0.282 E-score.
For TACGTTGA the value was 0.0426 E-score; for CCTAAAAG, -0.0533 E-score; for AATCCCAG, -0.0202 E-score.
On to AACCGACC, for which the binding signal is -0.11 E-score.
Sequence CATTAACG yielded a binding signal of 0.0908 E-score.
Regarding GATCGAAC, the binding signal is 0.079 E-score.
As to CAACAGAC, the binding signal was -0.0835 E-score.
Regarding CCCAATGC, the binding signal is -0.0562 E-score.
The sequence ACTTATAC gave a binding signal of 0.291 E-score.
The sequence GTCGGAAC had a binding signal of 0.0505 E-score.
Consider CGTCAAAG, for which the binding signal was -0.233 E-score.
In the case of ACGTTTAT, the binding signal stood at 0.124 E-score.
Consider ATGTATTG, for which the binding signal was 0.213 E-score.
The sequence AACGCGTT registered a binding signal of 0.0668 E-score.
The result for AACCGTGG reads -0.0431 E-score; that for AGCTATGA, 0.125 E-score.
With ATGCGGAA, the binding signal was -0.0341 E-score.
For ACAGTATA the value was 0.299 E-score.
ACCTGAAG: the binding signal is -0.0424 E-score.
ATCTACCC returned a binding signal of 0.22 E-score.
For GCACGAGA the value was -0.134 E-score; for CTCTGTTA, -0.0862 E-score.
For AAGGGAAA the value was -0.00394 E-score.
For AGACCTGA the value was -0.00447 E-score; for CGGGTCCA, -0.234 E-score.
